Sequences and labels used below:
B1: OR4K15 (parent)
chain: GUUAACGGUCAUAGGCCAUGGAAACUAGGAGCACCAUUUCGCUGCCAGUGAAGAAAUGAACAAAGAAAAUCUGGGCCAGGCAGGCAUCAAAAGAAAUAGUCUUGCGCUCAACCAGAAAGUCUGUAAUCAUUUUAAGGGUA

Read counts are not given, so values of variants with three or more changes are uncertain.

The variants in this data set derive from B1. The experiment in a line: self-cleavage, relative activity (ratio to wild type); higher = more cleavage; in vitro, sequencing; the parent is a self-cleaving ribozyme.
For GUUAACGGUCAUUGGCCAUGGGAACUAGGAGCACCAUUUCGCUGCCAGUGAAGAAAUGAACAAGGAAAAUCAGGGCCAGGCAGGCAUCAAAAGAAAUAGUCUUGCGCUCAACCAGAAAGUCUGUAAUCAUUUUAAGGGUA [A13U A22G A64G U72A], the self-cleavage turned out to be 0.11.

In the case of GUUAACGGUCAUGGGCCAUGGAAACUAGGAGCAUCAUUUCGCUGCCAGUGAAGGAAUGAACAAAGAAAAUCUGGGCCAGGCAGGCAUCAAAAGAAAUAGUCUAGCGCUCAACCAGAAAGUCUGUAAUCAUUUUAAGGGUA [A13G C34U A54G U103A], the self-cleavage was found to be 0.85.

In the case of GUUAACGGUCAUGGGCCAUGGAAACUAGGAGCACCACUUCGCUGCCAGUGAAGAAAUGAACAAAGAAAAUCUGGGCCAGGCAGGCAUCAAAAGAGAUAGUCUCGCGCUCAACCAGAAAGUCUGUAAUCAUUUUAAGGGUA [A13G U37C A95G U103C], the self-cleavage came to 1.15.

As to GUUAACGGUCAUGGGCCAUGGAAACUAGGAGCACCAUUUCGCUGCCAGUGAAGAAAUGAACAAAGAAAAUCUGGGCCAGGCGGGCAUCAAAAGAAAUAGUCUUGCGCUCAACCAGAAAGUCUGUAAUCAUCUUAAGGGUA [A13G A82G U131C], the self-cleavage was determined as 0.52.

GUUAACGGUCAUUGGCCGUGGAAACUAGGAUCACCAUUUCGCUGCCAGUGAAGAAAUGAACAAAGAAAACCUGGGCCAGGCAGGCAUCAAAAGAGAUAGUCUUGCGCUCAACCAGAAAGUCUGUAAUCAUUUUAAGGGUA [A13U A18G G31U U70C A95G]: the self-cleavage was determined as 1.32.

As for GUUAACGGUCAUGGGCCAUGGAAACUAGGAGCACCAUUUCGCUGCCAGUGAAGAAAUGAACAAAGAAAAUCUGGGCCAGGCAGGCAUCAAAGGAAAUAGUCUUGCGCUCAACCAGAGAGUCUGUAAUCAUUUUAAGGGUA [A13G A92G A117G], the self-cleavage was 1.15.

For GUUAACGGUCAUUGGCCAUGGAAACUAGGAGCACCGUUUCGCUGCCGGUGAAGAAAUGAACAAAGAAAAUCUGAGCCAGGCAGGCAUCAAAAGAAAUAGUCUUGCGCUCAACCAGAAAGUCUGUAAUCAUUUUAAGGGUA [A13U A36G A47G G74A], the self-cleavage worked out at 0.31.

GUUAACGGUCAUGGGCCAUGGAAACUAGGAGCACCAUUCCGCUGCCAGUGAAGAAAUGAACAAAGAAAAUUUGGGCCAGGCAGGCAUCAAAAGAAAUAGUCUUGCGCUCAACCAGAAAGUCUGUAAUCAUUGUAAGGGUA [A13G U39C C71U U132G]: the self-cleavage is 0.07.

In the case of GUUAACGGUCAUUGGCCAUGGAAACUAGGAGCACCAUUUCGCUGCCAGUGAGGAAAUGAACAAAGAAAAUCUGGGCCAGGCAGGCAUCAAAAGAGAUAGUCUUGCGCUCAACCAGAAAGUCUGUAAUCAUUUUAAGGGCA [A13U A52G A95G U139C], the self-cleavage is 1.45.

With GUUAACGGUCAUGAGCCAUGGAAACUAGGAGCACCAUUUCGCUGCCAGUGAAGAAAUGAACAAAGAAAAUCUGGGCCAGGCAGGCAUCAAAAGAAAUAGUCUUGCGCACAACCAGAAAGUCUGUAAUCACUUUAAGGGUA [A13G G14A U108A U130C], the self-cleavage came to 0.02.

GUUAACGGUCAUUGGCCAUGGAAACUAGGAGCACCAUUUCGCUGCCAGUGAAGUAAUGAACAAAGAAAAUCUGGGCCAGGCAGGCAUCAAGAGAAAUAGUCUCGCGCUCAACCAGAAAGUCUGUAAUCAUUUUAAGGGUA [A13U A54U A91G U103C]: the self-cleavage is 0.08.

GUUAACGGUCAUGGGCCAUGGAAACUAGGAGCACCAUUACGCUGCCAGCGAAGAAAUGAACAAAGAAAAUCUGGGCCAGGCAGGCAUCAAAAGAAAUUGUCUUGCGCUCAACCAGAAAGUCUGUAAUCAUUUUAAGGGUA [A13G U39A U49C A98U]: the self-cleavage is 1.22.

On to GUUAACGGUCAUGGGCCAUGGAAACUAGGAGCACCAUUUCGCUGCCAGUGAAGAAAUGAACAAAGAAAAUCUGGGCCAGGCAGGCAUCAAAAGAAAUAGUCUUGCGCCCAACCAGAAAGUCUGUAAUCAUUCUAAGGGUA [A13G U108C U132C], for which the self-cleavage was determined as 0.03.

GUUAACGGUCAUGGGCCAUGGAAACUAGGAGCACCAUUUCGCUGCCAGUGAAGAAAUGAACAAAGAAAAUCUAGGCCAGGCAGGCAUCAAAAGAAAUAGUCUUGCGCUCGACCAGAAAGUCUGUAAUCAUUUUAAGGGUA [A13G G73A A110G]: the self-cleavage turned out to be 0.13.

Consider GUUAACGGUCAUUGGCCAUGGAAACUAGGAGCACCAUUUCGCUGCCAGUGAAGAGAUGAACAAGGAAAAUCUGGGCCAGGCAGGCAUCAAAAGAAAUAGUCUUGCGCUCAACCAGAAAGUCUGUAAUCAUUUUAAGGGUA [A13U A55G A64G], for which the self-cleavage was 1.56.

With GUUAACGGUCAUGGGCCAUGGAAACUAGGAGCACCAUUUCGCUGCCAGUGAAGAAAUGAAUAAAGAAAAUCGGGGCCAGGCAGGCAUCAAAAGAAAUAGUCUUGCGCUCAACCAGAAAGUCUGUAAUCAUUUUAAGGGUA [A13G C61U U72G], the self-cleavage worked out at 0.18.

Regarding GUUAACGGUCAUUGGCCAUGGGAACUAGGAGCACCAUUUCGCUGCCAGUGAAGAAAUGAACAAAGAAGAUCUGGGCCAGGCAGGCAUCAAAAGAAAUAGUCUUGCGCUCAACCAGAAAGUCUGUAAUCAUUUCAAGGGUA [A13U A22G A68G U133C], the self-cleavage was determined as 2.

For GUUAACGGUCAUUGGCCAUGGAGACUAGGAGCACCAUUUCGCUGCCAGUGAAGAAAUGAACAAAGAAAAUCUGGGCCAGGCAGGCAUCAAAAGAAAUAGUCUUGCGCUCAACCAGAAAGUCUGUAAUCAUUUCAAGGGUU [A13U A23G U133C A140U], the self-cleavage came to 0.25.

As to GUUAACGGUCAUUGGCCAUGGAAACUAGGAGCACCAUUUCGCUGCCAGUGAGGAAAUGAACAAAGAAAAUCUGGGCCUGGCAGGCAUCAAAAGAAAUAGUCUUGCGCUCAACCAGAGAGUCUGUAAUCAUUUUAAGGGUA [A13U A52G A78U A117G], the self-cleavage is 0.39.

As to GUUAACGGUCAUGGGCCACGGAAACUAGGAGCACCAUUUCGCUGCCAGUGAAGAAGUGAACAAAGAAAAUCUGGGCCAGGCAGGCAUCAAAAGAAAUAGUCUUGCGCUCAACCAGAAAGUCUGUAAUCAUUUUAAGGGUA [A13G U19C A56G], the self-cleavage was 0.17.
